In the supplement of paper PMC10126150:
Values marked as one replicate rest on one cluster of the flow cell; about a third of the high ones do not repeat.

Tested on: ATP
Assay: switch fluorescence ratio, 500 uM ATP over buffer (Cy3 cluster intensity, sum of 5 cycles each) (fold (ratio)); higher = stronger signal-on switching upon ATP binding; sequences stand for … in TCGTCGGCAGCGTCAGATGTGTATAAGAGACAGTTTTTTTTTTTTTTTTTTTTTTTTT…TC
Conditions: aptamer strand: ATP DNA aptamer (quencher-CACCTGGGGGAGTATTGCGGAGGAAGG + anchor), 100 nM annealed; ATP concentration: 500 uM; one replicate
Outline: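 Imaging in selection buffer was followed by imaging after 15 min with 500 uM ATP at 22 °C, for Cy3-labelled switching-strand clusters annealed to 100 nM quencher-labelled ATP aptamer on a modified Illumina MiSeq flow-cell. Five of these buffer/ATP cycles ran, separated by NaOH stripping and re-annealing. The fluorescence ratio per cluster is summed target-cycle over summed buffer-cycle Cy3 intensity, averaged per switch-domain sequence; clusters outside 100-1000 RFU were removed.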
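Also: ATP exposure 15 min at 22 °C before imaging.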

Sequence | switch fluorescence ratio
CCGTTGGAAG | 1.04
ACTAGAGGGT | 1.05
GTGGCACATT | 1.01
TTTCCACGAG | 1.03
GTGTGCGGAG | 0.951
TAACAGGGAC | 1.01
TTGGAGAAGA | 1.12
ACTAGCCGGT | 1
AGCTATAGCC | 1.02
TACACCGTTA | 1.07
AAAAATGACC | 1.07
CAACAAAGCG | 0.945
GTTTATAAAT | 1
CCGGGCGTAA | 5.75
CCCCTTGGAG | 1.26
ACACGATGG | 1.04
GTTGAGCAGC | 1.04
CTCGACTGTT | 0.95
CCACAAATGT | 1.03
TGTAGTTCCT | 1.03
TTCCGTGGGT | 1.01
GAAATGAGTG | 1.02
GTGTAAAGCG | 1.01
CCGTGGGAAT | 1.06
CCCCTTAAGT | 1.04
TTCGGGTAAC | 0.988

Sequence | switch fluorescence ratio
TAAGGACGA | 0.965
AAATTTAGA | 1
CATTACGTTA | 1.15
ATAGTCGACC | 0.969
CCAGATTGAA | 0.952
ATGTCTTTTA | 1.01
CACATGTCGC | 1.01
TAGGTCGG | 0.997
ATGAAGCACC | 1.32
GAATGCCCGG | 0.94
ACGTGTGCTC | 1.04
TATTTAGATA | 1.01
ATAGCCATAG | 1.04
GTCAGGAGTG | 0.96
TAGGAGTACG | 1.01
GTAATGCCGG | 1.06
GTCCCAGACT | 0.974
AGAGCAGATT | 1.04
ATGTTTGAG | 0.98
CTATAGTGAC | 1.11
AGCGGGCCCG | 0.975
CTTGCGGGGT | 1.04
CACGGTGCGA | 0.946
AATAACGTTG | 1.01
GGGCATTTGA | 1.04
CACTTGTTCG | 1.03

Sequence | switch fluorescence ratio
GCGTATATGA | 1.02
TTAGGGGACT | 1.24
AATAAACGAA | 0.941
TTGCTGTCAC | 1.01
TTTCGATTGG | 0.989
TTCAGCAAGT | 2.55
ACGGCTGCTT | 1.11
CCCCCGGGCT | 0.989
GGCATTTCAG | 0.956
TTAGACTCAC | 1.1
GGTAGACGCG | 0.955
TAATATTGGT | 0.97
GGAAATTGCC | 0.966
AGCTCTTCCC | 1.25
TTCATCAACG | 1.05
ACATGCGTTA | 1
AAAAGCACTG | 1.12
TGAAATATT | 1.07
CAGCAAGCCA | 1.33
AACGTCTACC | 1.24
TCGACTGTTG | 1.01
TGGCTACTTT | 1.04
GCAGGTGCAA | 0.918
ACGACTAGC | 1.18
TTGCTTGGAC | 1.07
GCGGGTTAAT | 0.955

Sequence | switch fluorescence ratio
AACGTGGGCG | 0.959
TGGTCCGCTG | 1.04
TCTTGCTTGT | 1.02
AGCCCGAATA | 1
CGCCCATTTC | 1.25
TTACTCTGGT | 1.1
CCAGCGAATT | 2.41
AACAGGGG | 1.13
TGCCGTTTTA | 1
GGTCCCCATT | 0.98
GAGAGTACAC | 0.991
ACGTGGGTTT | 0.963
CAGGGGACAC | 1.02
ATTAATTC | 1.02
CAGCAGCATG | 1.36
ATATATAAGA | 0.993
GGGCTTTGTT | 1.03
CAAATGTGTA | 0.995
TTAAATCGTC | 0.96
TGAGTCCTGG | 1.01
CCAACTGGAG | 1.02
CTACATGGAA | 1.01
TCACGGCCA | 1.16
AGGTATCGGA | 0.978
GGGAACATTG | 0.984
CCAGTGCTG | 0.997

Sequence | switch fluorescence ratio
AAATTTTCTT | 1.03
AGTTCTACG | 0.978
ACTGCACGTA | 1.23
GGAATAGAAG | 0.985
AAAGGACATC | 1.03
ATGGTCCTAT | 1.06
AACAGGACGT | 1.03
CACCGAGGGG | 1.01
TTCTAAGAGG | 1.02
CCGCCTTATG | 1.06
CAGGGGGT | 1.03
TTTCCTCTAT | 1.6
CGCCTCCTTG | 1.07
ACGGATGCTA | 1.11
GTTAGCCATG | 1.04
CCTTATGTCC | 1.01
GGGGTGGCTC | 0.994
CATCTCCCGT | 1.02
TTACCGGGTA | 1.02
GGGAATCGCG | 0.99
AAGGTTCGCC | 0.962
TTAAATGGGC | 0.985
AATTCAGCCG | 1.12
TGATACTTGT | 0.994
ATGTCGTCA | 0.906
ATAGTTTCA | 1.04

Sequence | switch fluorescence ratio
GGAGGCTGCA | 0.939
AGCGGAGGAA | 1.04
GCAAGGAGCC | 1.24
GCGACGGACT | 1.11
TTTGACTCTT | 0.998
TCGTTTTTT | 1
CCGCATCCGT | 1.73
CACTTGGACA | 1.04
GCTGTCAGGC | 1.02
GTTTTCCAGT | 0.982
CGGGGGACTT | 0.999
GATACTTATT | 0.981
TTATCCCATA | 1.04
AAGACGAAAA | 0.982
AATACTCAGA | 1.02
TACCTGTACG | 1.18
AACATCGATG | 1.02
GACGTAATG | 1.02
TTGCGGAGGC | 0.986
CGGCAATCGT | 1.78
AATAGAAAGA | 1.01
TGAACAGCTT | 0.99
GAGTTTACGG | 0.972
CCGTGATAGC | 2.21
GGCTTTTCTA | 0.942
ATTATGGGTG | 1.07

Sequence | switch fluorescence ratio
TGTTGTGGTT | 1
ATAATAAGTC | 1.07
GGATCAAAGC | 1.04
TTGGTTGTTC | 1.03
TCACAACCTC | 1.08
GCATATTTTA | 1.01
CCTGTCGGGA | 0.997
CATGAACCGG | 1.02
AGAATAGCTG | 1.05
AGTTAACTGG | 1.05
AAAGTGTATT | 0.959
TCGCGACGGT | 1.03
CTGAATAAG | 1
AATCGTTGGT | 0.964
TGTGGTCAA | 1.01
TTGTCTAAGT | 1.02
GGGGAGCACT | 1.09
CTTGGTTGGC | 0.979
TGTTGCTGCG | 1.65
CATTGCAGCC | 1
AAATATTTTT | 1
AGTACCGCG | 1.02
TCCCATTAGA | 0.981
TACGGCTTGG | 1.03
GCGAATATAC | 3.21
TAGAGACGT | 1.02

Sequence | switch fluorescence ratio
AAGTGGACAG | 0.989
TTTGCCTGCA | 1.07
CGAAAGGTGC | 1.17
ATGCACGGGT | 1.05
GTAAATAATT | 1
CTGTTCGATG | 0.951
TTCTCTGTGT | 1.04
TATCAGTTTC | 1.03
TAATTCTCA | 1.01
CGGCTCTTTA | 0.985
TCTTGGCAAT | 4.46
TAAGATGAG | 0.989
TAATTGACAA | 1.09
AGGCGTATAT | 1.03
TCCGCCATTT | 1.55
GGGGCAGTTT | 0.987
TGTCTATGCT | 1
TCAACGTCAT | 1.1
ATCAACGGGG | 0.998
